Assay results: the supplement of paper PMC4604168 (melanoma cell lines)
The list shows a part of the results. Most values come without repeats; read them as rough.

Tests used:
Test in all cases: cell count relative to DMSO control; melanoma cells; higher = more viable cells
Conditions in all cases: library dose: standard library concentration; 72 h
[1] = test system: IST-MEL1
[2] = test system: LB2518-MEL
[3] = test system: LOXIMVI
[4] = test system: MEL-HO
[5] = test system: MZ2-MEL
[6] = test system: MeWo
[7] = test system: RPMI7951
[8] = test system: RVH-421
[9] = test system: SkMel28
[10] = test system: SkMel2
[11] = test system: SkMel30
[12] = test system: SkMel5
[13] = test system: UACC257
[14] = test system: UACC62
[15] = test system: WM115
[16] = test system: WM1716
[17] = test system: WM1745
[18] = test system: WM3526
[19] = test system: WM3619
[20] = test system: WM451Lu
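Further: cells treated in 1,536-well plates, then fixed and DAPI-stained, with nuclei counted from automated high-throughput microscope images.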

| SMILES | cell count [1] | cell count [2] | cell count [3] | cell count [4] | cell count [5] | cell count [6] | cell count [7] | cell count [8] | cell count [9] | cell count [10] | cell count [11] | cell count [12] | cell count [13] | cell count [14] | cell count [15] | cell count [16] | cell count [17] | cell count [18] | cell count [19] | cell count [20] |
| --- | --- | --- | --- | --- | --- | --- | --- | --- | --- | --- | --- | --- | --- | --- | --- | --- | --- | --- | --- | --- |
| COC(=O)c1sccc1S(=O)(=O)Nc1ccc(Nc2ccccc2)cc1OC + Cn1cc(/C=C2\C(=O)Nc3cccnc32)c2ccccc21 [GW441756] (first compound 5 µM, partner dose 2 µM) | 100% | 78.7% | 111% | 94.7% | 84% | 98.6% | 85.1% | 104% | 73.1% | 83.1% | 87.3% | 61.9% | 71.7% | 101% | 104% | 113% | 67.6% | 75.9% | 62.3% | 107% |
| O=C1NC(=O)/C(=C/c2ccc(-c3ccc(F)cc3O)o2)S1 + Cn1cc(/C=C2\C(=O)Nc3cccnc32)c2ccccc21 [GW441756] (first compound 5 µM, partner dose 2 µM) | 109% | 96% | 97.4% | 76.5% | 80.7% | 100% | 92.8% | 100% | 98.8% | 100% | 112% | 73.8% | 76.8% | 101% | 89.4% | 104% | 75.8% | 78.4% | 93.6% | 107% |
| COc1cc(N2CCC(N3CCN(C)CC3)CC2)ccc1Nc1ncc(Cl)c(Nc2ccccc2S(=O)(=O)C(C)C)n1 + CCCCCCCCCCCC1=C(O)C(=O)C=C(O)C1=O [Embelin] (first compound 0.4 µM, partner dose 6 µM) | 65.9% | 92.4% | 103% | 74.5% | 77.6% | 77.5% | 88.6% | 63.2% | 66.2% | 79.9% | 112% | 67% | 88% | 91% | 70.2% | 85.2% | 55.3% | 79.5% | 79.6% | 4.66% |
| COC(=O)c1sccc1S(=O)(=O)Nc1ccc(Nc2ccccc2)cc1OC + O=S(=O)(c1ccccc1)N(CC(F)(F)F)c1ccc(C(O)(C(F)(F)F)C(F)(F)F)cc1 [T0901317] (first compound 5 µM, partner dose 7 µM) | 104% | 94% | 167% | 78.2% | 78.3% | 76.7% | 73.5% | 81.2% | 57.1% | 78.7% | 77.3% | 61.6% | 72.2% | 77.6% | 89.1% | 78.8% | 78.4% | 65.1% | 72.8% | 82.6% |
| COc1ccc(COc2ccc(Cc3cnc(N)nc3N)cc2OC)cc1 + COc1cc(N2CCC(N3CCN(C)CC3)CC2)ccc1Nc1ncc(Cl)c(Nc2ccccc2S(=O)(=O)C(C)C)n1 [NVP-TAE684] (first compound 5 µM, partner dose 0.4 µM) | 89.6% | 77.8% | 102% | 84.3% | 87% | 62.4% | 64% | 90% | 54.4% | 69.3% | 111% | 58.9% | 82.5% | 78.2% | 77.2% | 76.1% | 49.9% | 67.7% | 66.5% | 76.4% |
| Oc1cc(-c2nc(-c3ccccc3)[nH]c2-c2ccncc2)ccc1Cl + Cc1cc([N+](=O)[O-])ccc1NS(=O)(=O)c1cc(Cl)ccc1Cl [FH535] (first compound 1 µM, partner dose 5 µM) | 50.3% | 120% | 82.7% | 53.7% | 9.44% | 74% | 83.2% | 59.5% | 51.3% | 38.2% | 78.8% | 57.7% | 72.3% | 63.9% | 41.3% | 65.9% | 63.3% | 47.6% | 78% | 53.4% |
| O=C(O)C(=O)Nc1sc2c(c1C(=O)O)CCNC2 + Cn1cc(/C=C2\C(=O)Nc3cccnc32)c2ccccc21 [GW441756] (first compound 8.33333 µM, partner dose 2 µM) | 102% | 84% | 132% | 89.6% | 76.4% | 95.1% | 85.8% | 109% | 80.4% | 101% | 104% | 67% | 80.9% | 113% | 104% | 79.1% | 66.5% | 98.4% | 74.6% | 105% |
| COc1ccc(COc2ccc(Cc3cnc(N)nc3N)cc2OC)cc1 + CC(C)CCN1c2nc(Nc3cc(F)c(O)c(F)c3)ncc2N(C)C(=O)C1C [BID1870] (first compound 5 µM, partner dose 1 µM) | 94.6% | 84.4% | 57.8% | 64.9% | 86.7% | 76.7% | 76.4% | 87.9% | 71.1% | 95.1% | 90.8% | 56.3% | 91.5% | 75% | 109% | 87.9% | 84% | 72.1% | 63.1% | 81.5% |
